Source: the supplement of paper PMC12217912
The other results are listed elsewhere or left out. Sequences were assembled here from the parent chain. Values near 0.05 are background.

B1: TEV protease; numbered along this chain (parent)
chain: MGESLFKGPRDYNPISSSICHLTNESDGHTTSLYGIGFGPFIITNKHLFRRNNGTLVVQSLHGVFKVKDTTTLQQHLVDGRDMIIIRMPKDFPPFPQKLKFREPQREERICLVTTNFQTKSMSSMVSDTSCTFPSGDGIFWKHWIQTKDGQCGSPLVSTRDGFIVGIHSASNFTNTNNYFTSVPKNFMELLTNQEAQQWVSGWRLNADSVLWGGHKVFMVKPEEPFQPVKEATQL

Variants of: B1
Test: raw area under fraction-flipped curve 0-4 h after induction (AUC4h, not background-subtracted), DNA-recorder readout of cleavage of the substrate (dimensionless); higher = more cleavage of the substrate by the protease variant
Settings: temperature: 34 °C; time window: 0-4 h after rhamnose induction
Description: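 In vivo DNA recorder in E. coli TOP10(DE3) ΔrhaA at 34 °C. Each TEVp single-site mutant (parent TEVp 0) is paired with a single-site variant of the 7-mer TEVs (canonical ENLYFQ|S). The substrate sits between flexible linkers in a Bxb1-sfGFP-TEVs-SsrA fusion, so cleavage stabilises Bxb1 and speeds flipping of a recombination array, read by NGS. The value is the raw area under the fraction-flipped curve over 0-4 h after rhamnose induction (AUC4h), with ≥20 reads per time point. It is not background-subtracted; inactive controls average about 0.047.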
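Note: Bxb1 expression induced with 0.2% (w/v) L-rhamnose at OD600 near 0.5, cultures sampled hourly, flipped fraction per protease–substrate barcode pair counted by paired-end Illumina sequencing.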

M122Q
area with substrate ENAYFQS: 0.0541 | area with substrate ENCYFQS: 0.0613 | area with substrate ENDYFQS: 0.0412 | area with substrate ENEYFQS: 0.0748 | area with substrate ENFYFQS: 0.0562 | area with substrate ENHYFQS: 0.0473 | area with substrate ENIYFQS: 0.0956 | area with substrate ENKYFQS: 0.0647 | area with substrate ENNYFQS: 0.0564 | area with substrate ENPYFQS: 0.0578 | area with substrate ENQYFQS: 0.0753 | area with substrate ENRYFQS: 0.0528 | area with substrate ENSYFQS: 0.0683 | area with substrate ENTYFQS: 0.0482 | area with substrate ENVYFQS: 0.0856

M122E
area with substrate ENAYFQS: 0.0418 | area with substrate ENCYFQS: 0.0481 | area with substrate ENDYFQS: 0.0501 | area with substrate ENEYFQS: 0.0603 | area with substrate ENFYFQS: 0.0722 | area with substrate ENGYFQS: 0.0708 | area with substrate ENHYFQS: 0.0738 | area with substrate ENNYFQS: 0.0644 | area with substrate ENPYFQS: 0.0456 | area with substrate ENQYFQS: 0.0801 | area with substrate ENRYFQS: 0.0511 | area with substrate ENSYFQS: 0.104 | area with substrate ENVYFQS: 0.0894 | area with substrate ENWYFQS: 0.0497 | area with substrate ENYYFQS: 0.0688

R106F
area with substrate ENAYFQS: 0.0633 | area with substrate ENCYFQS: 0.0506 | area with substrate ENDYFQS: 0.0625 | area with substrate ENEYFQS: 0.0707 | area with substrate ENFYFQS: 0.0752 | area with substrate ENHYFQS: 0.0673 | area with substrate ENIYFQS: 0.134 | area with substrate ENMYFQS: 0.0691 | area with substrate ENNYFQS: 0.0502 | area with substrate ENPYFQS: 0.0598 | area with substrate ENQYFQS: 0.0584 | area with substrate ENRYFQS: 0.0515 | area with substrate ENSYFQS: 0.0683 | area with substrate ENTYFQS: 0.0675

T114F
area with substrate ENAYFQS: 0.0773 | area with substrate ENDYFQS: 0.0481 | area with substrate ENEYFQS: 0.0596 | area with substrate ENGYFQS: 0.0573 | area with substrate ENHYFQS: 0.0544 | area with substrate ENMYFQS: 0.0873 | area with substrate ENQYFQS: 0.0607 | area with substrate ENRYFQS: 0.0704 | area with substrate ENSYFQS: 0.0625 | area with substrate ENTYFQS: 0.0609 | area with substrate ENVYFQS: 0.0859 | area with substrate ENWYFQS: 0.0634 | area with substrate ENYYFQS: 0.051

V113P
area with substrate ENAYFQS: 0.0641 | area with substrate ENCYFQS: 0.0623 | area with substrate ENDYFQS: 0.059 | area with substrate ENEYFQS: 0.06 | area with substrate ENFYFQS: 0.051 | area with substrate ENGYFQS: 0.0504 | area with substrate ENHYFQS: 0.0616 | area with substrate ENKYFQS: 0.0769 | area with substrate ENMYFQS: 0.0639 | area with substrate ENNYFQS: 0.065 | area with substrate ENPYFQS: 0.0536 | area with substrate ENQYFQS: 0.0521 | area with substrate ENRYFQS: 0.0532 | area with substrate ENSYFQS: 0.0654 | area with substrate ENTYFQS: 0.0429 | area with substrate ENVYFQS: 0.0542

E103C
area with substrate ENAYFQS: 0.0547 | area with substrate ENDYFQS: 0.0644 | area with substrate ENEYFQS: 0.072 | area with substrate ENFYFQS: 0.0685 | area with substrate ENGYFQS: 0.0656 | area with substrate ENHYFQS: 0.081 | area with substrate ENKYFQS: 0.0596 | area with substrate ENMYFQS: 0.117 | area with substrate ENNYFQS: 0.0598 | area with substrate ENQYFQS: 0.0568 | area with substrate ENSYFQS: 0.0659 | area with substrate ENTYFQS: 0.076 | area with substrate ENVYFQS: 0.0886 | area with substrate ENWYFQS: 0.0556 | area with substrate ENYYFQS: 0.066

E103Q
area with substrate ENAYFQS: 0.0345 | area with substrate ENCYFQS: 0.0834 | area with substrate ENDYFQS: 0.0576 | area with substrate ENEYFQS: 0.0591 | area with substrate ENFYFQS: 0.0436 | area with substrate ENGYFQS: 0.0615 | area with substrate ENHYFQS: 0.0638 | area with substrate ENIYFQS: 0.0887 | area with substrate ENMYFQS: 0.0733 | area with substrate ENNYFQS: 0.0698 | area with substrate ENPYFQS: 0.0642 | area with substrate ENQYFQS: 0.0616 | area with substrate ENSYFQS: 0.0662 | area with substrate ENTYFQS: 0.0638 | area with substrate ENVYFQS: 0.0745

E103L
area with substrate ENAYFQS: 0.0638 | area with substrate ENCYFQS: 0.0692 | area with substrate ENDYFQS: 0.0688 | area with substrate ENEYFQS: 0.0849 | area with substrate ENHYFQS: 0.0755 | area with substrate ENPYFQS: 0.0648 | area with substrate ENSYFQS: 0.0728 | area with substrate ENTYFQS: 0.0732 | area with substrate ENVYFQS: 0.0772 | area with substrate ENWYFQS: 0.0569 | area with substrate ENYYFQS: 0.0566

E107W
area with substrate ENAYFQS: 0.0651 | area with substrate ENDYFQS: 0.0617 | area with substrate ENEYFQS: 0.06 | area with substrate ENFYFQS: 0.0589 | area with substrate ENGYFQS: 0.071 | area with substrate ENIYFQS: 0.111 | area with substrate ENKYFQS: 0.0776 | area with substrate ENNYFQS: 0.0671 | area with substrate ENPYFQS: 0.0745 | area with substrate ENQYFQS: 0.079 | area with substrate ENSYFQS: 0.0545 | area with substrate ENTYFQS: 0.0584 | area with substrate ENVYFQS: 0.0551

R102C
area with substrate ENAYFQS: 0.0489 | area with substrate ENDYFQS: 0.049 | area with substrate ENEYFQS: 0.0619 | area with substrate ENFYFQS: 0.0511 | area with substrate ENGYFQS: 0.0608 | area with substrate ENHYFQS: 0.048 | area with substrate ENIYFQS: 0.0663 | area with substrate ENKYFQS: 0.0843 | area with substrate ENMYFQS: 0.0545 | area with substrate ENNYFQS: 0.061 | area with substrate ENPYFQS: 0.0482 | area with substrate ENQYFQS: 0.0411 | area with substrate ENSYFQS: 0.0524 | area with substrate ENTYFQS: 0.0591 | area with substrate ENVYFQS: 0.0571 | area with substrate ENWYFQS: 0.0392

R102A
area with substrate ENAYFQS: 0.0492 | area with substrate ENCYFQS: 0.056 | area with substrate ENDYFQS: 0.0544 | area with substrate ENEYFQS: 0.0536 | area with substrate ENFYFQS: 0.0533 | area with substrate ENGYFQS: 0.0576 | area with substrate ENHYFQS: 0.055 | area with substrate ENMYFQS: 0.0405 | area with substrate ENNYFQS: 0.0511 | area with substrate ENPYFQS: 0.054 | area with substrate ENQYFQS: 0.0467 | area with substrate ENRYFQS: 0.0564 | area with substrate ENSYFQS: 0.0527 | area with substrate ENTYFQS: 0.053 | area with substrate ENVYFQS: 0.0585 | area with substrate ENWYFQS: 0.0575

R102T
area with substrate ENAYFQS: 0.0519 | area with substrate ENCYFQS: 0.0885 | area with substrate ENGYFQS: 0.0617 | area with substrate ENHYFQS: 0.0354 | area with substrate ENQYFQS: 0.0414 | area with substrate ENSYFQS: 0.0534 | area with substrate ENTYFQS: 0.0445 | area with substrate ENVYFQS: 0.0494

C111L
area with substrate ENAYFQS: 0.0529 | area with substrate ENCYFQS: 0.0725 | area with substrate ENDYFQS: 0.0633 | area with substrate ENEYFQS: 0.0601 | area with substrate ENFYFQS: 0.0659 | area with substrate ENGYFQS: 0.0528 | area with substrate ENIYFQS: 0.124 | area with substrate ENMYFQS: 0.0807 | area with substrate ENNYFQS: 0.0585 | area with substrate ENPYFQS: 0.0729 | area with substrate ENQYFQS: 0.0526 | area with substrate ENSYFQS: 0.0671 | area with substrate ENYYFQS: 0.103
